The campaign covered roughly 48,000 compounds. About 120 (0.25%) were called active. About 4% were inconclusive and are not listed. Calls come from the whole dose curve; as a rule, active = well fitted activation curve with a large enough effect; inconclusive = small, poorly fitted or top-dose-only effect, or another doubt; inactive = no such curve, though single readings can be large or run the other way. Some of the results follow.
test: Primary qHTS for Identification of Small Molecule Activators of Huntingtin-Antisense Promoter Activity; settings: HEK293 HTT-AS promoter firefly luciferase reporter, 24 h; series mostly up to 57.5 µM; activity change, positive = activation: at the top concentration; note: nearly all actives have a fitted effect of over 55% in size
Method in brief: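 HEK293 Fluc reporter, 2,500 cells/well, 24 h pre-culture; cpds up to 57.5 uM final, 24 h 37 degrees C; Dual-Glo, 10 min RT; normalized vehicle = 0%, zero RLU = -100%.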

Row | SMILES | activity change, positive = activation
1 | Cc1c(C(=O)Nc2ccc(C(=O)O)cc2)nnn1-c1ccccc1 | inactive: -90.9%
2 | CSc1ccc(CCNC(=O)Cn2ccc3cc(S(=O)(=O)N4CCCCCC4)ccc32)cc1 | inactive: -35.6%
3 | O=C(Nc1nc2n(n1)C(c1ccc(F)cc1)C=C(c1ccccc1)N2)c1ccco1 (centres undefined) | inactive: -15.1%
4 | O=c1c(-c2cc(-c3ccccc3)nc3c2COc2ccc(Cl)cc2-3)coc2ccc(F)cc12 | inactive: 2.42%
5 | Cc1c(Cl)cccc1NC(=O)c1ccc2c(c1)CCN2S(=O)(=O)c1ccccc1 | inactive: 3.27%
6 | CN(C)CCNc1ncnc2c1cnn2-c1cccc(Cl)c1 | inactive: 15.2%
7 | NC1CCN(c2nc3c(cc2F)c(=O)c(C(=O)O)cn3-c2ccc(F)cc2F)C1 (centres undefined) | inactive: 1.88%
8 | CN(C)c1ccc(C(CNC(=O)c2ccccc2C(F)(F)F)N2CCOCC2)cc1 (centres undefined) | inactive: 1.27%
9 | COc1ccc(CNC(=O)C2CCCN(S(=O)(=O)c3cccc4nsnc34)C2)cc1 (centres undefined) | inactive: -16.9%
10 | Cn1nnnc1SCCCNCc1cc(Cl)ccc1OCc1ccc(F)cc1 | inactive: -13.9%
11 | COC(=O)c1c(NC(=O)c2nc(SCc3ccc(F)cc3)ncc2Cl)sc2c1CCCC2 | inactive: 0%
12 | Cc1nn2c(=O)cc(COC(=O)Cc3ccccc3)nc2s1 | inactive: 6.73%
13 | Nc1c(C(=O)Nc2ccc(OC(F)(F)F)cc2)sc2nc(-c3ccncc3)ccc12 | inactive: -45.6%
14 | CCOc1ccccc1-c1noc(CSc2nnc(-c3ccccc3)n2-c2ccc(F)cc2)n1 | inactive: -29.1%
15 | CCCCN(CC)CCCNC(=O)c1cc2c(=O)[nH]c3ccccc3c2n1C | inactive: -9.87%
16 | COc1ccc(NC(=O)CCCSc2nc(-c3ccco3)cc(C(F)(F)F)n2)cc1OC | inactive: -13.2%
17 | CCc1ccc(-c2cn3c(n2)sc2cc(C(=O)NC4CCCCC4)ccc23)cc1 | inactive: 1.59%
18 | COc1cccc(-c2nc(S(=O)(=O)c3ccc(Cl)cc3)c(NCc3ccccc3)o2)c1 | inactive: -17.7%
19 | CC(=O)Nc1ccc(NS(=O)(=O)c2c(C(=O)N3CCC(C)CC3)c(C)n(C)c2C)cc1 | inactive: -17.2%
20 | COc1ccc2oc(=O)c(C(=O)NCCc3c(C)[nH]c4ccc(F)cc34)cc2c1 | inactive: -30%
21 | COCCNc1oc(-c2ccccc2)nc1S(=O)(=O)c1ccc(Br)cc1 | inactive: -23.2%
22 | COc1ccc2sc(N(Cc3cccnc3)C(=O)c3ccc4c(c3)OCCO4)nc2c1 | inactive: -20.4%
23 | CCc1ccc(S(=O)(=O)N(C(=O)c2ccncc2)c2ccc3oc(C)c(C(=O)OC)c3c2)cc1 | inactive: -86.8%
24 | COc1cccc(Cn2c(Oc3cc(C)cc(C)c3)nc3c2c(=O)n(C)c(=O)n3C)c1 | inactive: -15.7%

Row | SMILES | activity change, positive = activation
25 | COc1ccc(CC(=O)N2CCc3cc(OC)c(OC)cc3C2COc2cc(C)cc(C)c2)cc1OC (centres undefined) | inactive: -19%
26 | Cc1nn(S(=O)(=O)c2ccc(Br)cc2)c(C)c1S(=O)(=O)N1CCCCCC1 | inactive: -4.02%
27 | CCOC(=O)c1ccc(N2C(=O)c3n[nH]c(-c4ccco4)c3C2c2ccc(C)cc2)cc1 (centres undefined) | inactive: -58.8%
28 | Cc1cc(C)cc(NC(=O)CCS(=O)(=O)c2cccc3nsnc23)c1 | inactive: -9.56%
29 | CC(=O)c1ccc(NS(=O)(=O)c2cccc(S(=O)(=O)c3ccc(Cl)cc3)c2)cc1 | inactive: -33.1%
30 | CCc1ccc(N(CC)C(=O)c2cc3c(=O)oc4ccc(C)cc4c3s2)cc1 | inactive: -4.01%
31 | Cc1cccc(C)c1Nc1nn2c(=O)c3cc4c(cc3nc2s1)OCO4 | inactive: -10.2%
32 | Cc1cccc(NC(=O)CSc2ccc(-c3ccccn3)nn2)c1 | inactive: -14.8%
33 | COc1ccc(-n2nc(C(=O)N3CCCC(C)C3)c3c4ccccc4n(C)c3c2=O)cc1Cl (centres undefined) | inactive: -8.57%
34 | CCOC(=O)c1ccc(NC(=O)CSc2c3c(nc4cc(Cl)ccc24)CCCC3)cc1 | inactive: -12.9%
35 | COc1cc(OC)c(NC(=O)CCCn2nc(C)c3c(C)n(-c4ccccc4)nc3c2=O)cc1Cl | inactive: -17.5%
36 | CCN(CC)c1nc2ccccc2nc1C(=O)Nc1cc(OC)c(OC)c(OC)c1 | inactive: -16.1%
37 | O=C(NC1CC(=O)N(c2ccccc2)C1)c1ccc(S(=O)(=O)N2CCCCC2)cc1 (centres undefined) | inactive: -24.5%
38 | Cc1nn2c(C)c(C(=O)NCc3ccco3)cnc2c1-c1ccccc1 | inactive: -12.5%
39 | Cc1nn(C(=O)c2ccc(Cl)cc2)c(C)c1S(=O)(=O)N1CCCCCC1 | inactive: -13.3%
40 | Cc1ccc(N2CCn3c2nc2c3c(=O)n(CCCc3ccccc3)c(=O)n2C)cc1C | inactive: -4.78%
41 | O=C(Nc1ccc(F)c(Cl)c1)N1CC=C(c2c[nH]c3ccccc23)CC1 | inactive: -9.89%
42 | CC(C)CCNC(=O)c1cc2cc(S(=O)(=O)N3CCCCC3)ccc2n1C | inactive: -29%
43 | Cn1c(=O)oc2cc(S(=O)(=O)N3CCCC(C(=O)NCc4ccc(F)cc4)C3)ccc21 (centres undefined) | inactive: -36.4%
44 | O=C(NC1CCN(CCc2c[nH]c3ccccc23)CC1)c1ccccc1 | inactive: -6.89%
45 | O=C(NCCc1ccccc1Cl)c1sc2ncccc2c1-n1cccc1 | inactive: 10.3%
46 | CCC(=O)N1c2ccccc2CC1C(=O)NCCc1ccccc1 (centres undefined) | inactive: -5.22%
47 | CSc1ncc(Cl)c(C(=O)Nc2c(C(=O)Nc3cccc(Cl)c3)oc3ccccc23)n1 | inactive: -5.17%
48 | CCC(=O)Nc1ccccc1-c1nc2ccccc2n(CC(=O)c2ccc(C)cc2)c1=O | inactive: -14.6%

Row | SMILES | activity change, positive = activation
49 | Cc1ccc(N2CCN(C(=O)c3cnc(N4CCCCC4)c4ccccc34)CC2)c(C)c1 | inactive: -29.1%
50 | COc1ccc(CNC(=O)CCCN2C(=O)COc3ccc(C)cc32)cc1 | inactive: -3.32%
51 | COc1cccc(Cn2nnc3c(=O)[nH]c(C4CCN(C(=O)c5ccccc5Cl)CC4)nc32)c1 | inactive: -27.9%
52 | CC(C)(C)C(=O)Oc1ccc2c(c1)nc(NC(=O)c1cccc([N+](=O)[O-])c1)n2CCCO | inactive: -0.719%
53 | CC1=C(C(N)=O)C(c2ccccc2Br)n2ncnc2N1 (centres undefined) | inactive: -7.42%
54 | O=C(NCc1ccccc1Br)c1cnc2sc(N3CCCCCC3)nn2c1=O | inactive: 2.9%
55 | O=C(Cn1ncc2c3ccccc3n(Cc3ccc(F)cc3)c2c1=O)NCCC1=CCCCC1 | inactive: -1.13%
56 | Cc1ccc(C)c(CN2C(=O)c3ccccc3S(=O)(=O)c3ccc(C(=O)NCCCN4CCCC(C)C4)cc32)c1 (centres undefined) | inactive: -22.1%
57 | Cc1c(C(=O)Nc2ccc(C(C)C)cc2)sc2nc3n(c(=O)c12)CCC3 | inactive: -21.3%
58 | CCC(CC)c1nn2c(=O)cc(COc3ccc(NC(=O)c4ccc(C)cc4)cc3)nc2s1 | inactive: -4%
59 | Cc1nn(C(=O)c2ccc(Cl)cc2)c(C)c1S(=O)(=O)N1CCOCC1 | inactive: -16.4%
60 | Cc1cn2c(=O)cc(COC(=O)c3cccc(NC(=O)c4ccccc4Cl)c3)nc2s1 | inactive: -19.7%
61 | CCc1ccc(CNC(=O)CN2C(=O)CSc3c2c(C)nn3-c2ccccc2)cc1 | inactive: -16.6%
62 | Cc1ccc(CNc2ncnc3c2nnn3C)cc1 | inactive: 12.1%
63 | COc1ccc(OCC(=O)NCC(c2ccc(OC)cc2)N2CCCCC2)cc1 (centres undefined) | inactive: 9.01%
64 | COc1cc(OC)nc(O[C@H](C(=O)O)C(OC)(c2ccccc2)c2ccccc2)n1 | inactive: -1.64%
65 | COc1ccc(C2C(C(=O)Nc3cccnc3)=C(C)Nc3nc(-c4ccccc4)nn32)cc1OC (centres undefined) | inactive: -8.1%
66 | O=c1[nH]c(=O)n(C2CCCCC2)c(O)c1C1=Nc2ccccc2SC(c2ccccc2)C1 (centres undefined) | inactive: -11.6%
67 | Cc1cccc(OCC(=O)N(Cc2ccc(C(C)(C)C)cc2)Cc2ccco2)c1 | inactive: -41%
68 | CN(C)c1ccc(/C=C/c2noc(-c3ccccc3O)n2)cc1 | inactive: 0%
69 | COc1ccccc1NC(=O)C1=C(C)Nc2nc(SCc3ccccc3Cl)nn2C1c1ccccn1 (centres undefined) | inactive: -7.09%
70 | CSc1ccc(CCNS(=O)(=O)c2ccc3c(c2)C(C)(C)C(=O)N3C)cc1 | inactive: -27.6%
71 | COc1cc(OC)cc(C(=O)N2CCN(C(=O)COc3ccccc3)CC2)c1 | inactive: 5.4%
72 | Cc1ccc(C(c2cccc(Br)c2)c2c(C)[nH]c3ccccc23)s1 (centres undefined) | inactive: 6.61%

Row | SMILES | activity change, positive = activation
73 | CC(C)c1ccc(NC(=O)C(C)N(c2ccccc2)S(C)(=O)=O)cc1 (centres undefined) | inactive: -21.3%
74 | O=c1c2ccccc2n2c(-c3ccc(Cl)cc3)nnc2n1CCc1ccccc1 | inactive: -0.952%
75 | COc1cc(OC)c(NC(=O)N2CC3CCCN3c3ccccc32)cc1Cl (centres undefined) | inactive: -28.2%
76 | CCc1ccc(-n2nc(C)c3c(C)cc(=O)n(CC(=O)Nc4ccc(C(C)=O)cc4)c32)cc1 | inactive: -2.97%
77 | COCCCNc1nc(NCc2cccc(Cl)c2)c2cnn(C)c2n1 | inactive: -26.3%
78 | COc1ccc(-c2nc(CSc3nnc(C)n4c3cc3occc34)c(C)o2)cc1OC | inactive: -21.3%
79 | CC(C)C(NS(=O)(=O)c1ccc2c(c1)oc(=O)n2C)C(=O)NCCc1ccccc1 (centres undefined) | inactive: 5.52%
80 | CC(=O)Nc1ccc(-n2c(CCC(=O)O)ccc2-c2ccc(Br)cc2)cc1 | inactive: 2.6%
81 | COc1ccc(CNC(=O)Cc2c(C)c3c(cc(C)c4c(C)coc43)oc2=O)cc1OC | inactive: -2.01%
82 | COc1ccc(Cl)cc1NC(=O)Cn1c(=O)n(Cc2cccs2)c(=O)c2cccnc21 | inactive: -32.5%
83 | CC1=C(C(=O)O)N2C(=O)[C@@H](NC(=O)C(N)c3ccccc3)[C@H]2SC1 (some centres undefined) | inactive: -9.24%
84 | CCOC(=O)c1cc(-c2ccc(C)cc2)n(CC(=O)Nc2ccccc2F)c1C | inactive: -13.8%
85 | COc1ccc(Br)c2c1-c1nc(NC(=O)c3ccccc3F)sc1C2 | inactive: -9.45%
86 | CCc1ccc(-c2[nH]nc3nc(-c4ccc(OC)cc4)cc(C(=O)NCCCOC)c23)cc1 | inactive: 6.65%
87 | COc1ccc(CCCc2nnc(SCC(=O)Nc3cc(C)ccc3C)o2)cc1 | inactive: 7.32% [at 11.5 µM, percent change from vehicle, -100% = no light]
88 | COC(=O)c1ccccc1NC(=O)c1ccc(COc2cc(C)cc(C)c2)o1 | inactive: 15.9%
89 | Cc1nc2ccc(S(=O)(=O)N(CC(=O)Nc3cccc(Cl)c3)Cc3ccccc3)cc2s1 | inactive: -32.5%
90 | Cc1nn(CC(=O)NCc2ccc(N(C)C)cc2)c(=O)c2c(C)n(-c3ccc(Cl)cc3)nc12 | inactive: -39.8%
91 | CCOc1ccc(NC(=O)CCn2c(=O)c3cccn3c3cccnc32)cc1 | inactive: -6.88%
92 | COc1ccc(CCNC(=O)c2ccc3c(c2)N(Cc2cc(C)ccc2C)C(=O)c2ccccc2S3=O)cc1OC (centres undefined) | inactive: -23.3%
93 | COc1ccc(-c2nc(SCC(=O)N3CCN(c4ccc(F)cc4)CC3)n[nH]2)cc1 | inactive: -18.8%
94 | CCCCOc1ccc(CNC(=O)Cc2ccc(NC(=O)N3CCCCc4ccccc43)cc2)cc1 | inactive: -8.71%

Source: PubChem BioAssay AID1508624 (National Center for Advancing Translational Sciences (NCATS), 2021)
